# Test results reported in article PMC13423814.
# The source holds more than one record for some entries. This is not the full list of results. There may be further records. Some protein pairs were linked at several places, one record each.
# Columns and labels:
# Conditions in all cases: DSSO, in cells
# AATF = AATF (UniProt Q9NY61)
# COA3 = COA3 (UniProt Q9Y2R0)
# CHCHD3 = CHCHD3 (UniProt Q9NX63)
# CALR = CALR (UniProt P27797)
# ENO1 = ENO1 (UniProt P06733)
# GNG12 = GNG12 (UniProt Q9UBI6)
# H1-2 = H1-2 (UniProt P16403)
# HADHA = HADHA (UniProt P40939)
# SQOR = SQOR (UniProt Q9Y6N5)
# TIMM50 = TIMM50 (UniProt Q3ZCQ8)
# HADHB = HADHB (UniProt P55084)
# HKDC1 = HKDC1 (UniProt Q2TB90)
# HNRNPD = HNRNPD (UniProt Q14103)
# HNRNPK = HNRNPK (UniProt P61978)
# HNRNPM = HNRNPM (UniProt P52272)
# HSP90AB4P = HSP90AB4P (UniProt Q58FF6)
# HSP90B1 = HSP90B1 (UniProt P14625)
# PPIB = PPIB (UniProt P23284)
# HSPA4 = HSPA4 (UniProt P34932)
# HSPH1 = HSPH1 (UniProt Q92598)
# KGD4 = KGD4 (UniProt P82909)
# KIF21A = KIF21A (UniProt Q7Z4S6)
# LDHB = LDHB (UniProt P07195)
# LMNB1 = LMNB1 (UniProt P20700)
# TMPO = TMPO (UniProt P42167)
# TOR1AIP1 = TOR1AIP1 (UniProt Q5JTV8)
# LRRC59 = LRRC59 (UniProt Q96AG4)
# MATR3 = MATR3 (UniProt P43243)
# MCM2 = MCM2 (UniProt P49736)
# MCM5 = MCM5 (UniProt P33992)
# MCM7 = MCM7 (UniProt P33993)
# MCM6 = MCM6 (UniProt Q14566)
# MRTO4 = MRTO4 (UniProt Q9UKD2)
# MYBBP1A = MYBBP1A (UniProt Q9BQG0)
# Sequence of UniProt P20700 (P20700 whole entry): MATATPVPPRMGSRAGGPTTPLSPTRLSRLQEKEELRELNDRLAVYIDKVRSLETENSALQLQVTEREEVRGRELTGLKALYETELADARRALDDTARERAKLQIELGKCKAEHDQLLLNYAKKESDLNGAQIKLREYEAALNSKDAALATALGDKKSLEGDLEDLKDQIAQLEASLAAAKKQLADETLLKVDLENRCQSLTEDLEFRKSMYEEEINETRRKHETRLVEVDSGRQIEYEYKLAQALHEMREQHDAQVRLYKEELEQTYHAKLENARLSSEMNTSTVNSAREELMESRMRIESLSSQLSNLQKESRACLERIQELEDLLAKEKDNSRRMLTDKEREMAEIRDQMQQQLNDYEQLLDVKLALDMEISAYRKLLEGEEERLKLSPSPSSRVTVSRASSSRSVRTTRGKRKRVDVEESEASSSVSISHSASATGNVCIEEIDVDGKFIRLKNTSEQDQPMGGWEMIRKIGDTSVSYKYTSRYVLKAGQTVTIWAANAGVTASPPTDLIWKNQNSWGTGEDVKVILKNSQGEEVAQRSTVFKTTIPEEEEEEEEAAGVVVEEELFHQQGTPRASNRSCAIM
# Sequence of UniProt P33993 (P33993 whole entry): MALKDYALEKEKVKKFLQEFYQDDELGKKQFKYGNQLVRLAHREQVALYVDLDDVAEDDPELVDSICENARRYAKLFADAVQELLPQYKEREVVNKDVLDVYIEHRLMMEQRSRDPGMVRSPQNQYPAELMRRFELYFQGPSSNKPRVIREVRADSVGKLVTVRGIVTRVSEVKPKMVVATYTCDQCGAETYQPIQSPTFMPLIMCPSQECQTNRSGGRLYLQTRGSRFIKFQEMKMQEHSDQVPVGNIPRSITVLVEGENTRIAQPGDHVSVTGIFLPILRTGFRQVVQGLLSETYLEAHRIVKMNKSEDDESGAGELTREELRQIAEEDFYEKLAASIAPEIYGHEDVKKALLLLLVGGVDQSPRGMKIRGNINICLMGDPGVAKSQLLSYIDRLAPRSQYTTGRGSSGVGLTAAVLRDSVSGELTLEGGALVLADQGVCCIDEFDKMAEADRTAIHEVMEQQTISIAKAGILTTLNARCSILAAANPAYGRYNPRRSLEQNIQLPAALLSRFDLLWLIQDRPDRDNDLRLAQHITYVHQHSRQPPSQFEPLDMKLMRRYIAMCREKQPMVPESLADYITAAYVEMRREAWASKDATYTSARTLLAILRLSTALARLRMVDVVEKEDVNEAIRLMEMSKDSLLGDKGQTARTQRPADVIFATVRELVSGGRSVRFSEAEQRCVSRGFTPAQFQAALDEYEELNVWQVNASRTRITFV
# Sequence of UniProt Q5JTV8 (Q5JTV8 whole entry): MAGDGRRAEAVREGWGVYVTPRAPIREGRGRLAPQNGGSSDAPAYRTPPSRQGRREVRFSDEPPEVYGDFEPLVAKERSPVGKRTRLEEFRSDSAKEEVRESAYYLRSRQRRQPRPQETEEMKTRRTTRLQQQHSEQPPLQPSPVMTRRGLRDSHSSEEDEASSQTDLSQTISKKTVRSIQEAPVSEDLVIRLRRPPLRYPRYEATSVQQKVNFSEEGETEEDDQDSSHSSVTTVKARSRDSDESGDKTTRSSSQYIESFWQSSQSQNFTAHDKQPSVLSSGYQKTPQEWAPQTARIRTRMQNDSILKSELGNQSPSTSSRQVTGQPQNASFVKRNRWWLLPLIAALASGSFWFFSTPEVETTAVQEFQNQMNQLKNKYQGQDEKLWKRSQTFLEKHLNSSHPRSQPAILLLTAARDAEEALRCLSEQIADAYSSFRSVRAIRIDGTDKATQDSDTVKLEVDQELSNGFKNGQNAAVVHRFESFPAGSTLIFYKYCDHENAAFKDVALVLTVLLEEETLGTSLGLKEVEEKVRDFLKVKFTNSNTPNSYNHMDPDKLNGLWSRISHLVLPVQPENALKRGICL
# Sequence of ATP5MG (O75964 whole entry): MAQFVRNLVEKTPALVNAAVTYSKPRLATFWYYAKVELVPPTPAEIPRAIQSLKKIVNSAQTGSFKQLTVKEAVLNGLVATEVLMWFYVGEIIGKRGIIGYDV
# Sequence of DLD (P09622 whole entry): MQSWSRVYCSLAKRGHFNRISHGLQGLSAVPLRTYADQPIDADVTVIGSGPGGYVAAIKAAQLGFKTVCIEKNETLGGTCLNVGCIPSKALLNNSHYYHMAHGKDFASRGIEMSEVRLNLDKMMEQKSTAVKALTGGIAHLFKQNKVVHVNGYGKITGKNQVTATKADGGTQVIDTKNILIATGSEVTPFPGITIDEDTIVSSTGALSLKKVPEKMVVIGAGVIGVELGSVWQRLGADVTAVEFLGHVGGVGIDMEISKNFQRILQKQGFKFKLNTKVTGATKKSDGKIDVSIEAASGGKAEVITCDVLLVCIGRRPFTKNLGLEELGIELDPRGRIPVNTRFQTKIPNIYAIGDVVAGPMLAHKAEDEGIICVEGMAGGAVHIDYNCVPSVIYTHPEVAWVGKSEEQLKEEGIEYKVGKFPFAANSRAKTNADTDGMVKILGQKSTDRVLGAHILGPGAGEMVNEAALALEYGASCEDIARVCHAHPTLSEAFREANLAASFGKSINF
# Sequence of PSMD3 (O43242 whole entry): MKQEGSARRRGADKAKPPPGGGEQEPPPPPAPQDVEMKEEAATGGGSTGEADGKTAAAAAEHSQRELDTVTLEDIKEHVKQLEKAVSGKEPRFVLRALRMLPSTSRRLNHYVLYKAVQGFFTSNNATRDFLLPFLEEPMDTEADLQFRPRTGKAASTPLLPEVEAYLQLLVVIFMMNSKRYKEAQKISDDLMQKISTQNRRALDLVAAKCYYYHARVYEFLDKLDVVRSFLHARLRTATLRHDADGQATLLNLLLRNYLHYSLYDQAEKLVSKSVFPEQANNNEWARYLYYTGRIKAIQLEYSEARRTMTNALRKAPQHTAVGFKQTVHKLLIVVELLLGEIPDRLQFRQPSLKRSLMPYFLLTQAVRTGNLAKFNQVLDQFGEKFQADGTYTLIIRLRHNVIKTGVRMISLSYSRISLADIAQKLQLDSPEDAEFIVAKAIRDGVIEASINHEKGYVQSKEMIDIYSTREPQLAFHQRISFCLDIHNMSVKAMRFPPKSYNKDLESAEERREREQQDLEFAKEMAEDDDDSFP
# Sequence of SLC25A5 (P05141 whole entry): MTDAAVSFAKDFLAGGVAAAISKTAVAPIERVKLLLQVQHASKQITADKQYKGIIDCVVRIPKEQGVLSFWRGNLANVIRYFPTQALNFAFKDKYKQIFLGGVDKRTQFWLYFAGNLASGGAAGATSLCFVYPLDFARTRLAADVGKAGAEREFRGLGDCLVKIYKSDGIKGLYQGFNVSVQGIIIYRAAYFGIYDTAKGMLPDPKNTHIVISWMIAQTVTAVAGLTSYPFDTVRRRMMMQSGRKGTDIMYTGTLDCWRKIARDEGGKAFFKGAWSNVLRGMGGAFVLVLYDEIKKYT
# Sequence of IMMT (Q16891 whole entry): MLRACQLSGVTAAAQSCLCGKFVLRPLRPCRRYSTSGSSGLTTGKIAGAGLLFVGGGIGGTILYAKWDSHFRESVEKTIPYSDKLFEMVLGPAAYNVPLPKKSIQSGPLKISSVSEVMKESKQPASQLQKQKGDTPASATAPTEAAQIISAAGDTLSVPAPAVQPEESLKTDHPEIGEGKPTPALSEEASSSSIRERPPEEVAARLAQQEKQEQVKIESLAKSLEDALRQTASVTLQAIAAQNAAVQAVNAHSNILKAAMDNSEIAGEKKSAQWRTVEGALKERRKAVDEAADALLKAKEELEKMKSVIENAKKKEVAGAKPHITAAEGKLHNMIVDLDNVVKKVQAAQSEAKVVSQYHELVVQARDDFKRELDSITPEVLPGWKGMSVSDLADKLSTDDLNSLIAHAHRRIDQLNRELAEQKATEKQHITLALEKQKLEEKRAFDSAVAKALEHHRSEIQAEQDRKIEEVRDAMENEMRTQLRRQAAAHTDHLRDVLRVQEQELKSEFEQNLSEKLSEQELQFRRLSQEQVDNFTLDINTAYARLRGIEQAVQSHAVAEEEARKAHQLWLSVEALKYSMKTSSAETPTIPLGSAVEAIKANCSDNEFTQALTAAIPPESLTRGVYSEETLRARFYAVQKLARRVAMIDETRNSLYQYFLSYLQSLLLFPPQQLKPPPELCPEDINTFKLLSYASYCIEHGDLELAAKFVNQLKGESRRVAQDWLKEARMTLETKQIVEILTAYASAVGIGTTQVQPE
# Sequence of UniProt Q9NY61 (Q9NY61 whole entry): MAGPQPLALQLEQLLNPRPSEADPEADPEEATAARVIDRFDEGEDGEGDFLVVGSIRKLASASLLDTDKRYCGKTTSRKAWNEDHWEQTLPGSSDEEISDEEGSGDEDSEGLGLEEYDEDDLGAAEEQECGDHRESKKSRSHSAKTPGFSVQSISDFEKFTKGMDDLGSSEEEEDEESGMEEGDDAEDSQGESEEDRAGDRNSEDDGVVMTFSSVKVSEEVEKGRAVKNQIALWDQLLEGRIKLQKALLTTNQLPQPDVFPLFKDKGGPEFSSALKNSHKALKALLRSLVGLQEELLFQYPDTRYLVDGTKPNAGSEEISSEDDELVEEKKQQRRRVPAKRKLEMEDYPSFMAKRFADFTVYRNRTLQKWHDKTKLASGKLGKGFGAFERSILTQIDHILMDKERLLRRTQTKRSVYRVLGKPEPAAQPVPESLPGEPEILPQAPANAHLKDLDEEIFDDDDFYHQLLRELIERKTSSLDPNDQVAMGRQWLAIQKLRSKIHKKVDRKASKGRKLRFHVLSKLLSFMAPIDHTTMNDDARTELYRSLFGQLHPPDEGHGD
# Sequence of NGDN (Q8NEJ9 whole entry): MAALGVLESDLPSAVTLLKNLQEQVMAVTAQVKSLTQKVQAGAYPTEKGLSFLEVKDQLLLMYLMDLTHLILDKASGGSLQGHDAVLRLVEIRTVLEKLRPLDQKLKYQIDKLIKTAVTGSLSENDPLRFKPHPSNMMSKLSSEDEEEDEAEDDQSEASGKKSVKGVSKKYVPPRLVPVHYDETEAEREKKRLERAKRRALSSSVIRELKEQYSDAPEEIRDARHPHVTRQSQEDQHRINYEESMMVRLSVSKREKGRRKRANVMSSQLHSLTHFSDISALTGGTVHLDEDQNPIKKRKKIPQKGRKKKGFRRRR
substance,measurement,setting,value
"NGDN, Q8NEJ9",cross-linked residues,AATF,K38 - K228 and K98 - K375 and K98 - K380 and K112 - K223 and K115 - T476
"CMC1, Q7Z7K0",cross-linked residues,COA3,K15 - K93 and K90 - K93
"IMMT, Q16891",cross-linked residues,CHCHD3,K269 - K45 and K282 - K165 and K423 - K45 and K436 - K45 and K451 - S44
"ITGB1, P05556",cross-linked residues,CALR,K100 - K209 and K202 - K153
"GAPDH, P04406",cross-linked residues,ENO1,K215 - K256 and K263 - K420
"GNA13, Q14344",cross-linked residues,GNG12,K94 - K4 and K204 - K4
"H1-3, P16402",cross-linked residues,H1-2,K149 - K160 and K161 - K160
"SLC25A5, P05141",cross-linked residues,HADHA,K147 - K569 and K147 - K625
same,cross-linked residues,SQOR,K147 - K173 and K147 - K365
same,cross-linked residues,TIMM50,K43 - T46 and K49 - T46 and K147 - T46 and K166 - T46
"ATP5MG, O75964",cross-linked residues,HADHA,K24 - K569 and K55 - K569 and K55 - K625 and K55 - K634
"ATP5PD, O75947",cross-linked residues,HADHB,K95 - K408 and K117 - K254
"HK1, P19367",cross-linked residues,HKDC1,K624 - K102 and K738 - K102
"HNRNPDL, O14979",cross-linked residues,HNRNPD,S141 - T193 and S141 - S250 and K162 - T193 and K212 - K114 and K212 - K119
same,cross-linked residues,HNRNPK,K142 - K60 and K302 - K198
"S100A6, P06703",cross-linked residues,HNRNPM,K26 - K381 and K26 - K388 and K47 - K381 and K47 - K388
"HSP90AA1, P07900",cross-linked residues,HSP90AB4P,K489 - K446 and K585 - K446
"PDIA4, P13667",cross-linked residues,HSP90B1,K245 - K547 and K294 - K72 and K570 - K603
same,cross-linked residues,PPIB,K211 - K84 and K245 - K116
"HSPA8, P11142",cross-linked residues,HSPA4,K56 - K272 and K328 - K631 and K328 - K686 and K328 - K697
same,cross-linked residues,HSPH1,K328 - K703 and K328 - K786
"DLD, P09622",cross-linked residues,KGD4,K159 - K57 and K417 - K17 and K417 - K33 and K445 - K17 and K445 - K33 and K445 - S56
"PSMD3, O43242",cross-linked residues,KIF21A,K315 - K847 and K325 - K847 and K404 - K847
"LDHA, P00338",cross-linked residues,LDHB,K14 - K156 and K59 - K244 and K81 - K244 and K222 - K7
"LMNA, P02545",cross-linked residues,LMNB1,K32 - K261 and K78 - K209 and K90 - K312 and K97 - K123 and K97 - K157 and K97 - K182 and K108 - K182 and K135 - K312 and K181 - K102 and K233 - K49 and K260 - K271 and K270 - K261 and K270 - K330 and K270 - K457 and K316 - K312 and T416 - K49 and K420 - K49 and K420 - K271 and K420 - K312 and K457 - K49
same,cross-linked residues,TMPO,K90 - K303 and K90 - K334 and K97 - K213 and K97 - S306 and K97 - K334 and K97 - S388 and K123 - S306 and K123 - K334 and K135 - K213 and K270 - K334 and K316 - K334 and K420 - K334 and K470 - K334
same,cross-linked residues,TOR1AIP1,K90 - K248 and K97 - K248 and K123 - K248
"SEC61B, P60468",cross-linked residues,LRRC59,K20 - K73 and K20 - K201
"PTBP1, P26599",cross-linked residues,MATR3,K436 - K491 and K454 - K3 and K454 - K483 and K454 - K491
"MCM3, P25205",cross-linked residues,MCM2,K732 - K734 and K736 - K510
same,cross-linked residues,MCM5,K248 - K272 and K688 - K581 and T694 - K581 and K732 - K581
same,cross-linked residues,MCM7,K152 - K10 and K435 - K236
"MCM4, P33991",cross-linked residues,MCM6,K490 - K407 and K549 - K205
same,cross-linked residues,MCM7,K220 - K96 and K409 - K174 and K409 - K236 and K627 - K596
"CCDC86, Q9H6F5",cross-linked residues,MRTO4,K215 - T108 and K215 - K205 and S224 - S93 and K229 - S93
"RPL23A, P62750",cross-linked residues,MYBBP1A,K50 - K344 and K78 - S1166
